Results reported in PubChem BioAssay AID1963576 (National Center for Advancing Translational Sciences (NCATS), 2024).
Out of some 46,000 compounds screened, about 60 (0.1%) were called active. Roughly 3% stayed inconclusive and do not appear here. Calls come from the whole dose curve; as a rule, active = well fitted inhibition curve with a large enough effect; inconclusive = small, poorly fitted or top-dose-only effect; inactive = no such curve, though single readings can be large or run the other way. Some of the results follow.

experiment: Primary qHTS assay for Inhibitors of ovarian cancer metastasis using an organotypic tumor microenvironment (TME) model.; note: nearly all actives have a fitted effect of over 65% in size;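 for activity change, negative = inhibition: plate controls were DMSO wells for no effect and tomatine positive control wells for full effect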; details: SKOV3ip1-GFP adhesion/invasion on 3D omental model, fluorescence; series mostly up to 45.8 µM; activity change, negative = inhibition: at the top concentration
In short: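 Adhesion/invasion was scored as fixed GFP-labeled SKOV3ip1 cell counts (488/509 nm), normalized to DMSO and tomatine controls. Cancer cells in serum-free medium, with four compound doses (0.36-46 umol/L), sat 2 hr at RT then 16 hr at 37 C on a 48 hr fibroblast/mesothelial/ECM culture.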

Compound	activity change, negative = inhibition	outcome
Fc1ccc(N2CCN(c3ncnc4[nH]ncc34)CC2)cc1	inactive: 3.46%	–
Cc1oc2ncnc(N3CCOCC3)c2c1C(=O)NCc1ccc(Cl)cc1	inactive: 1.84%	–
N#C/C(=C\c1ccc(-c2cccc(Cl)c2)o1)C(=O)Nc1cccc(C(F)(F)F)c1	inactive: -1.18%	–
CCOc1ccc(CC(=O)N2CCc3cc(OC)c(OC)cc3C2COc2ccc3c(C)cc(=O)oc3c2)cc1 (centres undefined)	inactive: 1.26%	–
Cc1cc(=O)oc2cc(OCC(=O)Nc3ccc(O)c(C(=O)O)c3)ccc12	inactive: -7.29%	–
CCCn1cnc2cc(NCc3ccc(OC)cc3OC)ccc21	inactive: 0.266%	–
Cc1ccc(NC(=O)c2sc(-n3nc(C)c(Cc4ccc5c(c4)OCO5)c3C)nc2C)cc1Cl	inactive: -29.6%	–
Cc1cccc(-c2noc(CNC(=O)c3ccccc3Br)n2)c1	–	inactive
COc1ccc(CNC(=O)Cc2c(C)c3c(cc(C)c4c(C)c(C)oc43)oc2=O)cc1OC	inactive: -9.97%	–
CCN(CC)S(=O)(=O)c1ccc2c(c1)N(CC(=O)NCCCN1CCN(c3cc(Cl)ccc3C)CC1)C(=O)CO2	inactive: -26.3%	–
Cc1cccc(Cn2c(SCc3ccc(C(=O)NC4CCCC4)cc3)nc3ccncc32)c1	inactive: -12.5%	–
CCCOc1ccc(NC(=O)C(=O)NCCCN2CCOCC2)cc1	inactive: -7.77%	–
CCCCCn1c(=O)[nH]c2cc(C(=O)NCc3ccccc3)ccc2c1=O	inactive: 8.31%	–
Cc1ccc(CNC(=O)CS(=O)(=O)Cc2nc(-c3ccccc3C)oc2C)cc1	inactive: 0.707%	–
CC(C)CNS(=O)(=O)c1ccc(N2CCCCS2(=O)=O)cc1	inactive: 15%	–
Cc1ccc(CNC(=O)c2cc3c(s2)-c2c(C)cccc2OC3)cc1	inactive: 0.451%	–
CCOC(=O)c1c(NC(C)=O)c2c3c(sc2n1Cc1nc(-c2ccccc2Cl)oc1C)CCCC3	inactive: -7.86%	–
CC1CCN(S(=O)(=O)c2ccc3c(c2)oc(=O)n3CC(=O)O)CC1	–	inactive
COc1ccc(CC(=O)Nc2ccc3nc(N4CCCCC4)cc(C)c3c2)cc1	inactive: -18.6%	–
COc1ccc(Cn2c(=O)c3ccccc3n3c(-c4cccc(OC)c4OC)nnc23)cc1	inactive: 12.6%	–
Cc1cccc(NC(=O)C2CCN(c3cnccn3)CC2)c1	–	inactive
COc1ccc(CNCc2c(C(=O)O)n(Cc3ccc(F)cc3)c3cc(C)ccc23)cc1OC	inactive: 5.97%	–
CCC(=O)N1CCc2cc(Br)cc(S(=O)(=O)CCC(=O)Nc3cccc(C)c3C)c21	inactive: -16.2%	–
CCOCCCNC(=O)c1ccc(-n2c(-c3ccccc3)cc3c2CCCCC3)cc1	inactive: -3.48%	–
Cc1cc(C)cc(NC(=O)N2CCN(c3cc(-c4noc(C)n4)ccc3C)CC2)c1	–	inactive

Compound	activity change, negative = inhibition	outcome
COc1ccc2c(c1)c1c(c(=O)n(Cc3ccccc3)c(=O)n1CC(=O)NCc1ccccc1)n2C	inactive: -7.81%	–
CC(C)OC(=O)C(C(=O)OC(C)C)=C1SC=CS1	inactive: 0.932%	–
CCc1nc(C)cn1S(=O)(=O)c1ccc(Cl)c(Cl)c1OC	–	inactive
N#Cc1ccccc1Cn1cnc2nc3c(cc2c1=O)CCCC3	–	inactive
COc1ccc(CC(=O)NCCS(=O)(=O)N2CCN(c3ccc(F)cc3)CC2)cc1OC	–	inactive
CCOC(=O)c1c(C)c(-c2ccccc2)n(CC(=O)NCCc2cccc(C)c2)c1C	inactive: -4.87%	–
COCCn1c(C)cc(O)c(C(c2ccc(F)cc2)N2CCN(c3ccccc3)CC2)c1=O (centres undefined)	inactive: 4.85%	–
O=C(CSc1nc(=O)[nH]c2c1CCCC2)NCc1ccc(F)cc1	inactive: -1.69%	–
COc1ccccc1NC(=O)c1sc2nc3c(cc2c1N)CN(Cc1ccccc1)CC3	–	inactive
Cc1cccc(C(=O)NC2=NC(c3ccc(Cl)cc3)CC(=O)N2)c1 (centres undefined)	inactive: 0.203%	–
Cc1cccc(CC(=O)NCc2nc3cccnc3n2Cc2ccc(F)cc2)c1	–	inactive
CCc1cc(=O)[nH]c(SCc2nc(-c3ccccc3)no2)n1	inactive: -7.7%	–
CCCOc1ccc(C(=O)Nc2ccc(NC(=O)c3ccccc3)c(C)c2)cc1	inactive: -6.66%	–
Cc1nnc2c(N3CCN(c4ccccc4F)CC3)nc3ccc(C(=O)c4ccccc4)cc3n12	inactive: -10.9%	–
COc1ccc(N2CC(NC(=O)C3CCCC3)CC2=O)cc1OC (centres undefined)	–	inactive
CSc1ccc(CCNC(=O)c2cc3cc(S(=O)(=O)N4CCCCC4)ccc3n2C)cc1	inactive: -12.5%	–
Cc1ccccc1Nc1c(-c2ccccc2)nc2cccc(C)n12	inactive: 10.4%	–
Cc1cc(F)ccc1NC(=O)CS(=O)(=O)c1cccc2nsnc12	inactive: -2.86%	–
CS(=O)(=O)Nc1ccccc1C(=O)OCc1cc(=O)n2nc(C3CCCCC3)sc2n1	inactive: 29.5%	–
CCOC(=O)C1CCC(CN(Cc2ccc(OC)cc2)S(=O)(=O)c2ccc(F)c(C(=O)Nc3c(C)cccc3C)c2)CC1 (centres undefined)	inactive: -1.94%	–
O=C(Nc1cccc(Cl)c1)C1CCCN(c2ncnc3c2nc2n3CCCCC2)C1 (centres undefined)	inactive: -15.6%	–
CCc1ccc(C(=O)c2cn(CC(=O)Nc3cc(F)ccc3F)c3nc(C)ccc3c2=O)cc1	–	inactive
COc1ccc2c(c1)sc1ncc(C(=O)NCc3cccc(C)c3)c(=O)n12	inactive: -2.76%	–
CCN(C(=O)c1cn(CC(C)C)c(=O)c2cc(OC)c(OC)cc12)c1cc(OC)ccc1OC	–	inactive
